Test results published in PubChem BioAssay AID624171 (National Center for Advancing Translational Sciences (NCATS), 2012).
“And” between values parts separate entries of the source, which are not always exact repeats. Equal values may be shown once. In all, about 410,000 compounds went through this assay and about 1,200 (0.29%) were called active. Inconclusive results, whose numbers are uncertain, are shown with a selection of clear calls. Calls follow the shape of the dose curve; as a rule, active = well fitted activation curve with a large enough effect; inconclusive = small, poorly fitted or top-dose-only effect; inactive = flat fitted curve, though single readings scatter. Potencies beside an inconclusive call are fits to weak or partial responses and may not hold up.

experiment: qHTS of Nrf2 Activators; settings: AREc32 ARE-luciferase reporter (MCF7-derived line), luminescence, 24 h; activation: at 46.1 µM (top of the series); also: nearly all actives have a fitted effect of over 65% in size; as to activation: % of control where 0% means no effect
How it was run: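 Steps: seed AREc32_Fluc cells (1000/well, 5% FBS OPTI-MEM); incubate overnight at 37 deg C; add 23 nL compound; incubate 24 hr; add Steady-Glo; hold 30 min RT; read luminescence.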
Potency is read from the fitted curve at half-maximal effect; tags tell the direction and shape of the fitted curve.

Compound | Potency | activation
N#C/C(=C(/O)c1ccc([N+](=O)[O-])o1)c1nc2ccccc2[nH]1 | inconclusive: 3.55 µM [activator, partial curve, poor fit] | 
Cc1ccc(C(=O)Nc2ncccc2C)o1 |  | inactive: -0.244%
O=C(CC(=O)c1ccccc1O)c1cccc(F)c1 | inconclusive: 3.16 µM [activator, full curve, poor fit] | 
COc1cccc(/C=C/C(=O)c2ccc(NC3=NCCCS3)cc2)c1 | inconclusive: 31.6 µM [activator, single point] | 
CCC(=O)Oc1cccc(C(=O)Nc2cccc(NC(=O)c3ccco3)c2)c1 | inconclusive: 14.1 µM [activator, partial curve, poor fit] | 
CC(C)(C)c1ccc(C2NC(=O)c3n[nH]c(-c4cccs4)c32)cc1 (configuration not stated) |  | inactive: -1.38%
Cc1ccc(/C=C/C(=O)OC(C)C(=O)Nc2ccc(Cl)cn2)o1 (configuration not stated) | inconclusive: 22.4 µM [activator, single point] | 
COc1cc(/C=C/c2ccc3cccc([N+](=O)[O-])c3n2)ccc1OCC#N |  | inactive: 40.2%
CC(C)c1ccc(NC(=O)COc2ccc(F)cc2C(=O)c2cnn(-c3ccccc3)c2)cc1 | inconclusive: 15.8 µM [activator, single point] | 
Cc1cc([N+](=O)[O-])ccc1NC(=O)c1ccco1 | inconclusive: 17.8 µM [activator, single point] | 
O=C(NC(=S)Nc1nc2c(s1)CCCC2)c1ccccc1 | active: 2.51 µM | 
O=C(Nc1nc2c(F)cc(F)cc2s1)c1ccco1 | inconclusive: 17.8 µM [activator, partial curve, poor fit] | 
CC(CS(=O)(=O)c1ccccc1[N+](=O)[O-])N1CCOCC1 (configuration not stated) | inconclusive: 14.1 µM [activator, single point] | 
CC(=O)c1sc(NC(=O)c2ccc3c(c2)OCO3)nc1C |  | inactive: -0.208%
Cc1cc(C)cc(NC(=O)N2CCN3CCCCC3C2)c1 (configuration not stated) |  | inactive: -0.475%
Cc1cccc(NC(=S)N/C(=N/S(=O)(=O)c2ccccc2)c2ccccc2)c1 | inconclusive: 17.8 µM [activator, single point] and inconclusive: 22.4 µM [activator, single point] | 
CCN(Cc1ccc(OC)c(F)c1)C(=O)CCl | inconclusive: 17.8 µM [activator, partial curve, poor fit] | 
CCOc1cccc(CNc2ccc(O)cc2)c1OCc1ccccc1Cl | inconclusive: 3.55 µM [activator, single point] | 
COc1ccc(C#CC2=CC(=O)CC(C)(C)C2)cc1 | active: 12.6 µM | 
CCN(CC)CCn1nc2c3c(cccc3c1=O)-c1ccccc1-2 |  | inactive: -1.72%
COn1c(-c2ccc(Cl)cc2)nc2ccc(Cl)cc21 | inconclusive: 12.6 µM [activator, single point] | 
CCN1CCN(c2ccc(S(=O)(=O)N3CCOCC3)cc2NC(=O)/C=C/c2ccc([N+](=O)[O-])cc2)CC1 | inconclusive: 31.6 µM [activator, single point] | 
O=C(N/N=C\c1ccc(Cl)s1)c1cccs1 | inconclusive: 7.08 µM [activator, partial curve] | 
COc1ccc(CN2C(=O)c3cccnc3C2Nc2ccc(OC)c(Cl)c2)cc1 (configuration not stated) |  | inactive: -0.37%

Compound | Potency | activation
O=C(CCS(=O)(=O)c1cc2c(cc1Cl)NC(=O)CO2)NCCc1ccc(Cl)cc1 |  | inactive: -0.25%
Cn1c(=NC(=O)c2ccco2)sc2cccc(F)c21 | inconclusive: 0.562 µM [activator, full curve, poor fit] | 
CCn1c(SCC(=O)c2ccc(Cl)cc2)nnc1C(C)C | inconclusive: 31.6 µM [activator, single point] | 
CNC(=O)c1ccsc1NC(=O)c1ccc(Cl)s1 | inconclusive: 6.31 µM [activator, full curve] | 
O=C1CN(C(=O)/C=C/c2ccccc2F)c2ccccc2N1 |  | inactive: 23.8%
O=C/C(=C\Nc1ccccn1)c1nc2ccccc2o1 | active: 12.6 µM | 
CCCCn1nnnc1C(c1cc2ccccc2o1)N1CCN(c2ccccc2F)CC1 (configuration not stated) |  | inactive: 1.34%
CN(C)CCC(=O)c1ccc2c(c1)OCO2 | inconclusive: 22.4 µM [activator, single point] | 
Cc1c(Cl)sn(-c2ccc(Cl)cc2)c1=O |  | inactive: 0.117%
CCn1c(CSc2nnc(C)n2-c2ccccc2)nc2cc(S(=O)(=O)N(C)C)ccc21 |  | inactive: 0.238%
COC(=O)c1ccc(NC(=O)CCc2nnc3ccc(NCc4ccco4)nn23)cc1 | inconclusive: 22.4 µM [activator, single point] | 
CCOC(=O)c1c(S(=O)(=O)N2CCN(c3ccccc3OC)CC2)c(C)n(C)c1C |  | inactive: -0.353%
CC(NC(=O)Nc1ccccc1O)(C(F)(F)F)C(F)(F)F | inconclusive: 15.8 µM [activator, partial curve, poor fit] | 
COCCN1C(=O)c2[nH]nc(-c3c(C)cc(C)cc3O)c2C1c1cccc(O)c1 (configuration not stated) |  | inactive: 0.337%
O=[N+]([O-])c1ccccc1N/N=C1\CCc2ccccc21 | inconclusive: 12.6 µM [activator, partial curve, poor fit] | 
CCCNS(=O)(=O)c1cc(-c2nnc3c4ccccc4c(C)nn23)ccc1OC | inconclusive: 0.891 µM [activator, full curve, poor fit] | 
Nc1nc(Nc2cccc(Cl)c2)nc(NCCO)c1[N+](=O)[O-] | inconclusive: 1.12 µM [activator, full curve, poor fit] | 
COc1ccc(-c2nc3cc([N+](=O)[O-])ccc3o2)cc1 | inconclusive: 2.51 µM [activator, full curve, poor fit] | 
Cc1cc(C)c(-n2c(SCCS(=O)(=O)c3ccc(F)cc3)n[nH]c2=O)c(C)c1 | active: 8.91 µM | 
C(=N\Nc1nc(Nc2ccccc2)nc(Nc2ccccc2)n1)/c1cccnc1 |  | inactive: 2.43%
O=C(COC(=O)CNC(=O)c1cccs1)Nc1ccccc1C(F)(F)F |  | inactive: -0.917%
CCC1(C)N=C(c2ccc3c(c2)OCO3)CC(c2ccccc2O)N1 (configuration not stated) | inconclusive: 15.8 µM [activator, single point] | 
O=C(CC1N=C2c3ccccc3N=C(SCc3cccc(Cl)c3)N2C1=O)NC1CCCCC1 (configuration not stated) |  | inactive: 5.4%
